Experiment [1] has as its target human Peroxisome Proliferator-activated Receptor alpha (PPARa), PPARA (gene 5465) (UniProt Q07869). Description: ATG_PPARa_TRANS: Attagene TRANS-FACTORIAL HepG2 Assay for human Peroxisome Proliferator-activated Receptor alpha (PPARa) (AID 2283001; active = hit-call score of the fitted dose curve at least 0.9, where 1 is the maximum). In a few lines:
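Cells (HepG2) are transfected with multiple reporter transcription units, exposed to chemical for 24 h, then total RNA is reverse-transcribed and amplified. Labelled products are quantified by capillary electrophoresis; induction is referenced to DMSO.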

Experiment [2] concerns the target Retinoic acid receptor RXR-alpha (Homo sapiens) (UniProt P19793). Description: ATG_RXRa_TRANS: Attagene TRANS-FACTORIAL HepG2 Assay for human Retinoid X Receptor alpha (RXRa) (AID 2283012; active = hit-call score of the fitted dose curve at least 0.9, where 1 is the maximum). In a few lines: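 TRANS format reporting activity of exogenous RXRa-Gal4 chimera in transiently transfected HepG2, 24 h exposure. Reporter transcripts quantified by RT-PCR with capillary electrophoresis, with gain of signal scored relative to DMSO.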
Sequence of UniProt P19793 (P19793 whole entry, looked up, the tested form may be a part): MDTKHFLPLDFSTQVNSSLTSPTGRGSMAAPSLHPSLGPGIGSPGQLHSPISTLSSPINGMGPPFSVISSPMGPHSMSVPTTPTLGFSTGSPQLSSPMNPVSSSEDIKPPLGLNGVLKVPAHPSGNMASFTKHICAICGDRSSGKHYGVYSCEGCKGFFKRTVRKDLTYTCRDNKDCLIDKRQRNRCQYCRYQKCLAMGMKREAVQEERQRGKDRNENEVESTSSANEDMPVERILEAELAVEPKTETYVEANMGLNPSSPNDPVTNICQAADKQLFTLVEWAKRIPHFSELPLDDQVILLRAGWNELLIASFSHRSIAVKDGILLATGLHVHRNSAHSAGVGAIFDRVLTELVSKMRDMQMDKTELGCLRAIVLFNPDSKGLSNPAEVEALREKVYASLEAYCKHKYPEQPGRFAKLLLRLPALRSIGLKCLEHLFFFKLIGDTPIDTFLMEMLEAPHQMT

A short description of experiment [3]: BSK_3C_Vis: BioMAP Diversity Plus: 3C Assay for Morphology Visualization (AID 2283025).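 Note: light microscopy image of cell morphology used as background control; fitted both ways so gain or loss versus DMSO counts.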 Particulars: primary human endothelial cells (HUVEC). In a few lines: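 Light-microscopy visualization of HUVEC cultures at 24 h post-treatment, with DMSO as baseline for bidirectional fitting.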
Read-out in experiment [4]: Monocyte Chemoattractant Protein-1 (MCP1), CCL2 (gene 6347)
Description: BSK_CASM3C_MCP1: BioMAP Diversity Plus: CASM3C Assay for Monocyte Chemoattractant Protein-1 (MCP1) Biomarker Activity (AID 2283046).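 Note: MCP-1 level quantified by ELISA 24 h after dosing.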 To be noted: actives raise or lower the signal; primary human coronary artery smooth muscle cells.

Read-out in experiment [5]: Epidermal growth factor receptor (EGFR), EGFR (gene 1956)
Description: BSK_hDFCGF_EGFR: BioMAP Diversity Plus: hDFCGF Assay for Epidermal growth factor receptor (EGFR) Biomarker Activity (AID 2283057). To be noted: actives raise or lower the signal; primary human foreskin fibroblasts. In a few lines:
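EGFR levels by ELISA in human dermal fibroblast cultures, 24 h post-treatment, fitted bidirectionally versus DMSO. Parallel wells stained with sulforhodamine B to detect overt cytotoxicity.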

Read-out in experiment [6]: Monokine induced gamma interferon (MIG), CXCL9 (gene 4283)
Description: BSK_hDFCGF_MIG: BioMAP Diversity Plus: hDFCGF Assay for Monokine induced gamma interferon (MIG) Biomarker Activity (AID 2283063). To be noted: actives raise or lower the signal; primary human foreskin fibroblasts. In a few lines:
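Fibroblasts (human foreskin, primary) dosed, 24 h, MIG by ELISA; fit bidirectional vs DMSO.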

Read-out in experiment [7]: E-selectin (Homo sapiens) (UniProt P16581)
Sequence of UniProt P16581 (P16581 whole entry, looked up): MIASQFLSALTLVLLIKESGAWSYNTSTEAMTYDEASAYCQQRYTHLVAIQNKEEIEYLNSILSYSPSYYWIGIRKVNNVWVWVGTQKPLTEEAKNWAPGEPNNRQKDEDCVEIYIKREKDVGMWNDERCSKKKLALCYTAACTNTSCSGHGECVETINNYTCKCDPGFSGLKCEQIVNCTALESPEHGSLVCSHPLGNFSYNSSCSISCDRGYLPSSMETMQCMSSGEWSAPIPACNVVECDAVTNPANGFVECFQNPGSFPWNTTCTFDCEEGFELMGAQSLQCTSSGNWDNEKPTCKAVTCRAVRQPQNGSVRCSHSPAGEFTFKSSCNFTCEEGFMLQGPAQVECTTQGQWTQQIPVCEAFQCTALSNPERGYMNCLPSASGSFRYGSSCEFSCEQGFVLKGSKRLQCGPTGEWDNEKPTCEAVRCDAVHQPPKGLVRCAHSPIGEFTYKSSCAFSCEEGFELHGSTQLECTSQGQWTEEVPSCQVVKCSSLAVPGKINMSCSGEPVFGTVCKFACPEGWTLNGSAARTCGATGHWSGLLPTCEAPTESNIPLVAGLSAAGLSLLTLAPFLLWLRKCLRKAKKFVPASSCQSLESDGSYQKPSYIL
The experiment in a line: BSK_LPS_Eselectin: BioMAP Diversity Plus: LPS Assay for Eselectin Biomarker Activity (AID 2283077). To be noted: actives raise or lower the signal; primary human HUVEC with PBMC. In a few lines:
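ELISA readout of E-selectin, 24 h post-dose, HUVEC + PBMC co-culture (LPS system). Gain or loss of signal vs DMSO baseline, bidirectional fit.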

Read-out in experiment [8]: Monocyte Chemoattractant Protein-1 (MCP1), CCL2 (gene 6347)
The experiment in a line: BSK_SAg_MCP1: BioMAP Diversity Plus: SAg Assay for Monocyte Chemoattractant Protein-1 (MCP1) Biomarker Activity (AID 2283090). To be noted: actives raise or lower the signal; primary human HUVEC with PBMC. In a few lines: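 Values derive from bidirectional fitting of ELISA-measured MCP1 against DMSO controls. Readings were taken 24 h after dosing human vascular endothelial cells co-cultured with peripheral blood mononuclear cells under superantigen stimulation.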

Experiment [9] has as its target human Endothelin Receptor Type A (ETA), EDNRA (gene 1909) (UniProt P25101). The experiment in a line: NVS_GPCR_hETA: NovaScreen (NVS) G Protein-Coupled Receptor Assay for human Endothelin Receptor Type A (ETA) (AID 2283265; active = hit-call score of the fitted dose curve at least 0.9, where 1 is the maximum). The essentials: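 Binding of radioligand to membrane protein extracted from SH-SY5Y cells was read by filtration and scintillation after 3 h. Compounds were screened at 25 uM in duplicate, with hits followed up in singleton concentration series to 50 uM.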
Sequence of UniProt P25101 (P25101 whole entry, looked up): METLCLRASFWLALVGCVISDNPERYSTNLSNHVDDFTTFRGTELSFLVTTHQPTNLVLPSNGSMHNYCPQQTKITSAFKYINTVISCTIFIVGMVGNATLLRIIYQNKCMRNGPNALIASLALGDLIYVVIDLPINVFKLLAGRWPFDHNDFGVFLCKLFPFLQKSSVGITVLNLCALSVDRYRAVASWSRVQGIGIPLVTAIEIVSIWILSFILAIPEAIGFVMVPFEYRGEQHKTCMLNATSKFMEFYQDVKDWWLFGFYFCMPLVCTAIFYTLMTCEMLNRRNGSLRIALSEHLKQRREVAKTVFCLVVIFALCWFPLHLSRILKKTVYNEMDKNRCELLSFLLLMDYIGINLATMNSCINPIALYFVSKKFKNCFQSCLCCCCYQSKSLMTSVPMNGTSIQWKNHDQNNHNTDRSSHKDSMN

In experiment [10] the target is chimpanzee Androgen Receptor (AR), AR (gene 747460) (UniProt O97775). Description: NVS_NR_cAR: NovaScreen (NVS) Nuclear Receptor Binding Assay for chimpanzee Androgen Receptor (AR) (AID 2283346; active = hit-call score of the fitted dose curve at least 0.9, where 1 is the maximum). The essentials: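 Cell-free radioligand displacement using receptor protein extracted from Sf9/Sf21 cells; bound radioligand measured by scintillation counting 72 hours after chemical dosing. Loss of signal versus DMSO baseline indicates binding; primary screen single-concentration in duplicate at 25 uM, actives followed in concentration series.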
Sequence of UniProt O97775 (O97775 whole entry, looked up): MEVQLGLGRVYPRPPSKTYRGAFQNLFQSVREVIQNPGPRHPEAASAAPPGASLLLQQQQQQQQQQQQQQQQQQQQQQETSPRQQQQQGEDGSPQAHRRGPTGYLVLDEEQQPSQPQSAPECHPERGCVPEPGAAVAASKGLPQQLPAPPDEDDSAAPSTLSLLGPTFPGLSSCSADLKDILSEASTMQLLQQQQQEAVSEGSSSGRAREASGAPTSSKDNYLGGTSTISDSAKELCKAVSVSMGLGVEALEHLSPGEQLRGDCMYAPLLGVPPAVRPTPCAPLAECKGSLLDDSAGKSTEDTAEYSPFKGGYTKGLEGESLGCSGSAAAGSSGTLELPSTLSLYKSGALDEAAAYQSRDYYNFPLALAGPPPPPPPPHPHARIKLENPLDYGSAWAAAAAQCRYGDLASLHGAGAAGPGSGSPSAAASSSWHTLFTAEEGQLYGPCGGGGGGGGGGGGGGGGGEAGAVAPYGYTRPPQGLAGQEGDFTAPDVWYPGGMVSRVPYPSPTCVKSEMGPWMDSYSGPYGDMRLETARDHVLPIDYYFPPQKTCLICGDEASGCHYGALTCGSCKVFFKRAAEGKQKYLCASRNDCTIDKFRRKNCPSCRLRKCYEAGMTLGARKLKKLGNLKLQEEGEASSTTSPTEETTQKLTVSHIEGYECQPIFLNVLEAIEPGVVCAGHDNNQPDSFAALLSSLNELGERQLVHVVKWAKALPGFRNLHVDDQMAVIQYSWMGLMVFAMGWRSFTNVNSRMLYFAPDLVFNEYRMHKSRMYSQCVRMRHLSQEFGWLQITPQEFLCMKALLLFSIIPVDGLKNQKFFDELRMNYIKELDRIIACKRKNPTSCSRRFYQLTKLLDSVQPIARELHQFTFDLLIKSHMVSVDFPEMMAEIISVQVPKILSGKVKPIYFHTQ

Experiment [11] concerns the target human Thyroid Receptor Alpha (TRa), THRA (gene 7067) (UniProt P10827). The experiment in a line: NVS_NR_hTRa_Antagonist: NovaScreen (NVS) Nuclear Receptor Binding Assay for human Thyroid Receptor Alpha Antagonism (TRa) (AID 2283362; active = hit-call score of the fitted dose curve at least 0.9, where 1 is the maximum;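 note: activity is loss of signal relative to DMSO baseline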). The essentials:
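AlphaLISA chemiluminescent immunoassay readout, taken 1 h post-dosing in a cell-free system with extracted protein. Activity was scored as signal loss against DMSO negative control, from duplicate single-concentration (25 uM) testing followed by concentration-response follow-up.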

The nature of experiment [12]: ATG_XTT_Cytotoxicity: Cytotoxicity Assessment in the Attagene TRANS-FACTORIAL HepG2 Assay (AID 2283584; active = hit-call score of the fitted dose curve at least 0.9, where 1 is the maximum;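 for AC50: cells exposed to compound for 24 h before reading; active means loss of viability signal versus DMSO baseline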). In a few lines:
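XTT readout of cell number in transfected HepG2 cells, 24 h post-dosing; DMSO serves as negative control and baseline, with activity taken as loss of viability signal.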

A short description of experiment [13]: CCTE_Deisenroth_5AR_NBTE_donor: CCTE's 5alpha-reductase NanoBRET Target Engagement Assay […], Deisenroth Lab (AID 2284319). Particulars: actives raise or lower the signal. In a few lines: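 HEK293T cells were reverse transfected with an SRD5A2-NanoLuc vector for 20 h, exposed to test chemical (8 points, 10 nM - 29.9 uM) for 3 h, then testosterone tracer for 2 h more. Donor luminescence (460 nm) was read; bidirectional fit versus DMSO.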

The structures appear in SMILES notation. For some assays here: Shown are results outside the selection of hits, which stands elsewhere. Inconclusive results are not listed. The entries are a selection whose mix differs from that of the whole data set. Some structures have more than one record in an assay (separate samples or runs), and their calls can disagree. The source made the active and inactive calls. Rule for the calls, unless noted: active = hit-call score of the fitted dose curve at least 0.9, where 1 is the maximum; inactive = score below 0.9.

Sequence of UniProt P10827 (P10827 whole entry, looked up): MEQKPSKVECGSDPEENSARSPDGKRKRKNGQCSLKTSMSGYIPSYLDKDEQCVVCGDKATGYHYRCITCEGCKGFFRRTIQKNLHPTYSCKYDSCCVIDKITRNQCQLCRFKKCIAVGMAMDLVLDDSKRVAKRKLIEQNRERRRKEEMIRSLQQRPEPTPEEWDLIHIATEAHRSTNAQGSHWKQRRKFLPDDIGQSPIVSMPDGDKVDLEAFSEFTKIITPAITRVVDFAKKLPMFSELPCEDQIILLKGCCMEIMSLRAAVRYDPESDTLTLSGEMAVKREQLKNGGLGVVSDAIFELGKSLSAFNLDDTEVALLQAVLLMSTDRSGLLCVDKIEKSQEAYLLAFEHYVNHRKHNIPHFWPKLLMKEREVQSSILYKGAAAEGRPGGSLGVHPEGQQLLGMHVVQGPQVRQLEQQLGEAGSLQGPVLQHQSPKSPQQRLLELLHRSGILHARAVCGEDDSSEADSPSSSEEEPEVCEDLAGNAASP
Sequence of UniProt Q07869 (Q07869 whole entry, looked up): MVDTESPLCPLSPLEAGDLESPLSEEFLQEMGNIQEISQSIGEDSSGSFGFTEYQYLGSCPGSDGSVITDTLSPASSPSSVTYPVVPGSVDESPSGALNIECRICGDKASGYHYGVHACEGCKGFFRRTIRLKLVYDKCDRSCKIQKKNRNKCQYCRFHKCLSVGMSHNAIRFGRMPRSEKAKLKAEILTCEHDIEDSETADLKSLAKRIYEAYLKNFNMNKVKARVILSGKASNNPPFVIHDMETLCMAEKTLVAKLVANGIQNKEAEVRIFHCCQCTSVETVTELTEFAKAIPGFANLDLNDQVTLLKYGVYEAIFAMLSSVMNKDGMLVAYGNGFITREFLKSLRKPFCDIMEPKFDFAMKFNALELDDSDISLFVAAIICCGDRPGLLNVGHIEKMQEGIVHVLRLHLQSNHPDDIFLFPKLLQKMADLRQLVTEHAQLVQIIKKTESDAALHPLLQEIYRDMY

Usually AC50 stands for the concentration giving half of the maximal activity seen. In the case of `NC(=NCCCCCCN=C(N)/N=C(\N)Nc1ccc(Cl)cc1)/N=C(\N)Nc1ccc(Cl)cc1`, the result in experiment [1], in experiment [5], in [9] and in experiment [12] was inactive. Further, the AC50 was active: 26.2 µM in experiment [2]; active: 4.76 µM in experiment [3]; active: 7.34 µM in [4]; active: 11.1 µM in [6]; active: 4.89 µM in [7]; active: 5.01 µM in experiment [8]. Also, the half-maximal activity concentration (AC50) is active: 22.5 µM in [10], active: 13.1 µM in [11], active: 27.2 µM in [12] and active: 66.2 µM in experiment [13].

These data come from PubChem BioAssay (EPA / NIEHS).
